The other results are listed elsewhere or left out.

This test has as its system S. aureus RN4220. Description: growth inhibition call (relative growth <= 0.2). The following applies: 50 µM.
With `CCS(=O)(=O)Nc1ccc2c(c1)C(=O)N(C)C[C@H](OC)[C@H](C)CN(C(=O)c1ccc3c(c1)OCO3)[C@@H](C)CO2`, the growth inhibition call was “inactive”.

Regarding `C[C@@H]1CCCCO[C@@H](CN(C)Cc2ccc(C(=O)Nc3ccccc3N)cc2)[C@@H](C)CN([C@H](C)CO)C(=O)c2cc(NS(=O)(=O)c3ccc(Cl)cc3)ccc2O1`, the growth inhibition call is “inactive”.

`C[C@H]1CCCCO[C@@H](CN(C)S(=O)(=O)c2ccccc2)[C@@H](C)CN([C@@H](C)CO)C(=O)c2cc(NS(=O)(=O)c3cn(C)cn3)ccc2O1`: the growth inhibition call is “inactive”.

For `COc1cccc(S(=O)(=O)N(C)C[C@@H]2Oc3cc(C#CCN(C)C)ccc3S(=O)(=O)N([C@@H](C)CO)C[C@H]2C)c1`, the growth inhibition call was “inactive”.

Regarding `C[C@H](CO)N1C[C@H](C)[C@@H](CN(C)S(=O)(=O)c2cn(C)cn2)Oc2ccc(NC(=O)Nc3ccc4c(c3)OCO4)cc2CC1=O`, the growth inhibition call is “inactive”.

On to `c1ccc([C@@H]2CNCCN2)cc1`, for which the growth inhibition call was “inactive”.

Turning to `Cc1noc(C)c1NC(=O)N(C)C[C@@H]1Oc2ccc(NS(=O)(=O)c3c(C)noc3C)cc2CC(=O)N([C@H](C)CO)C[C@@H]1C`, the growth inhibition call was “inactive”.

On to `C[C@H]1CCCCO[C@@H](CN(C)CC2CCCCC2)[C@@H](C)CN([C@@H](C)CO)C(=O)c2cc(NS(=O)(=O)c3ccccc3)ccc2O1`, for which the growth inhibition call was “inactive”.

`C[C@@H]1CCCCO[C@H](CN(C)Cc2ccccc2)[C@@H](C)CN([C@H](C)CO)C(=O)c2cc(NC(=O)Nc3ccc(F)cc3)ccc2O1`: the growth inhibition call was “inactive”.

Regarding `CO[C@H]1CN(C)C(=O)c2cc(NC(=O)c3ccccc3)ccc2OC[C@H](C)N(C(=O)CN(C)C)C[C@H]1C`, the growth inhibition call is “inactive”.

With `C[C@H]1CCCCO[C@@H](CN(C)C(=O)Nc2ccc(F)cc2)[C@@H](C)CN([C@@H](C)CO)C(=O)c2cc(NS(=O)(=O)c3cccs3)ccc2O1`, the growth inhibition call was “inactive”.

Consider `CC=Cc1ccc(OC)cc1`, for which the growth inhibition call is “inactive”.

Turning to `C[C@H]1CCCCO[C@@H](CN(C)Cc2ccc(C(=O)O)cc2)[C@@H](C)CN([C@@H](C)CO)C(=O)c2cc(NS(=O)(=O)c3ccc(Cl)cc3)ccc2O1`, the growth inhibition call is “inactive”.

With `CON=C(C(=O)N[C@@H]1C(=O)N2C(C(=O)OCOC(=O)C(C)(C)C)=C(C=Cc3scnc3C)CS[C@H]12)c1csc(N)n1`, the growth inhibition call was “active”.

For `O=C(Nc1cccc([N+](=O)[O-])c1)C(=O)NC1CC1`, the growth inhibition call is “inactive”.

`C[C@@H]1CN([C@H](C)CO)C(=O)c2cc(N(C)C)ccc2O[C@@H](C)CCCCO[C@@H]1CN(C)Cc1ccc(C(F)(F)F)cc1`: the growth inhibition call was “inactive”.

`CC(C)NC(=O)Nc1ccc2c(c1)C(=O)N([C@H](C)CO)C[C@@H](C)[C@@H](CN(C)C(=O)NC1CCCCC1)O2`: the growth inhibition call was “inactive”.

As for `C[C@H]1CCCCO[C@H](CN(C)Cc2ccc(C(=O)O)cc2)[C@@H](C)CN([C@@H](C)CO)C(=O)c2cc(NC(=O)CCC(F)(F)F)ccc2O1`, the growth inhibition call was “inactive”.

Turning to `C[C@H]1CN([C@@H](C)CO)S(=O)(=O)c2ccc(C#CC3CC3)cc2O[C@H]1CN(C)Cc1ccccc1F`, the growth inhibition call was “inactive”.

Turning to `C=CCN(CCCC)C(=O)[C@H]1N(C(C)(C)CO)C(=O)[C@H]2[C@H](C(=O)O)[C@@H]3C=C[C@@]21O3`, the growth inhibition call was “inactive”.

For `CC(C)N1C(=O)C[C@@](C(=O)NCCN2CCOCC2)(c2ccc([N+](=O)[O-])cc2)[C@H]1c1ccc(CO)cc1`, the growth inhibition call was “inactive”.

Regarding `CC(C)CC#Cc1ccc2c(c1)O[C@H](CN(C)C(=O)NC1CCCC1)[C@@H](C)CN([C@@H](C)CO)S2(=O)=O`, the growth inhibition call was “inactive”.

For the compound `OC[C@@H](O)[C@H]1O[C@H](c2ccccc2)OC[C@@H]1O`, the growth inhibition call is “inactive”.

Source of the values: the antibiotic and cytotoxicity screens of Wong et al. (2023).
